B1: 46685465_46685585_100_5pUTR_ENSMUSG00000033319_ENSMUST00000036226|mouse|control|control (ssRNA)
RNA: GGGAGUUCUACAGUCCGACGAUCUCCCUCCCGGGCCGUUCGCGUUGCAGCAGCUGCCGUGGCGGAUGGUGUAAUGGGCUGCAGGCCCGGGGGCCGGACGAGCCAGUUCGCUCCUUCACAUUACUGACGCCGCAGCCGCGCCAUCAACAGAGGAUUGAGCAUCA
B2: chr4:115894766:115894767:+_ENSMUSG00000028698_ENSMUST00000030464|mus_hu|mus_mus_mus_hu_True|38_88 (ssRNA)
RNA: GGGAGUUCUACAGUCCGACGAUCUUCCACACGGAAAUGUACUUCGGGUUUCCAACGGGCCAGUACCAGUCCGGCCAAACUACCCGAACAGGGUCCUGUCCUCCUCUCCUACAGAACACAACAAAAUGCCCCCGAACUUUCAAGCAACAGAGGAUUGAGCAUCA
B3: chr14:53113150:53113151:-_ENSG00000197930_ENST00000395686|hu_mus|motif|central (ssRNA)
RNA: GGGAGUUCUACAGUCCGACGAUCGCCCCACAGGCGGCACUUGAAGCAGCCAACACAGUCCAUGAUUCUUGAAAUGUUCCGGAAGUGUAGCCGGAAGUCCUCCUUUAGUUUAUGUGCUUCGUUUUUAUCCCCAGCAAAAAAAGACAACAGAGGAUUGAGCAUCA
B4: chr2:65473824:65473825:+_ENSG00000138071_ENST00000260641|hu_mus|motif|central (ssRNA)
RNA: GGGAGUUCUACAGUCCGACGAUCGUUUUUGGUUGGAUUCAUGGGAGGUUCUGUAAGUAAAAUCUUGCAGUUUCUGGUGUCGGUAUUGAGUUUCUCUGGUCCAAAUGUGUAGUCCCACAGGUGCUUCAUGUCAUCCCAAUUCCGCAACAGAGGAUUGAGCAUCA
B5: 139369925_139370045_2156_CDS_ENSG00000148396_ENST00000313050|human|control|control (ssRNA)
RNA: GGGAGUUCUACAGUCCGACGAUCCCCCUGGGUCCUGGCUGAAGGCCUCUUCUCGGGUGCUGGAUACACAGUAUCCAAGGGCGGUGCCCCUGCGUGCGGAAGCAUGUGCACAGCUUCCGUGGUGGAGUUAAGAGGCAGGGGACACAACAGAGGAUUGAGCAUCA
B6: 32628644_32630241_2191_3pUTR_ENSMUSG00000022797_ENSMUST00000023486|mouse|control|control (ssRNA)
RNA: GGGAGUUCUACAGUCCGACGAUCAAGAUAUGUCGGAAAGGAGACUCUCUUGGAGAUACAUAGGGCGACAGGAAGUGAUACUCCACUUUCAUAAUACGAUCAUUGAUUUCCCUCAUGACAAAUCUGUUUGUUUUCUCAGCAUUACAACAGAGGAUUGAGCAUCA
B7: chr7:141438946:141438947:+_ENSG00000106028_ENST00000265304|hu_mus|hu_hu_hu_mus_True|1_78 (ssRNA)
RNA: GGGAGUUCUACAGUCCGACGAUCGACGAAAUACCUGUAACACAGGUCUUCGAAACAUUCUAUUUUCUUUUCUUACAACCUAAUCUUUAGGCUUUUCCUAAAGGAAAGAAAGAAAAGAGAAAAAUGAUAAAUCAAGAACUUCCGCAACAGAGGAUUGAGCAUCA
B8: chr16:56712917:56712918:-_ENSMUSG00000022757_ENSMUST00000065515|mus_hu|motif|central (ssRNA)
RNA: GGGAGUUCUACAGUCCGACGAUCAUGAUUAGCUUCCCACUUAGAUCCAACUGUCCGUUCAUGGUGGACUCCAGGAUGUUCGGUAUAUACAACUCUAGAGAAAGACCAGGACGCAUGCGCGACGGCGCGAGGCGCAGGGCUGGCCAACAGAGGAUUGAGCAUCA
B9: chr7:135850644:135850645:-_ENSMUSG00000048170_ENSMUST00000057557|mus_mus|FALSE|FALSE (ssRNA)
RNA: GGGAGUUCUACAGUCCGACGAUCGUAGAGGUGUUCCGUGAAGGUACUGUUCUGCGGGCAACCACUCAGGUUAACUGUAAAUUUUCCUAGAGGAAGUACAUCUCUUCUUGUAUACACUGUAGAGAUGAGAUGCAAUAUAAGAUACAACAGAGGAUUGAGCAUCA
B10: 90017393_90017513_783_CDS_ENSMUSG00000057706_ENSMUST00000082237|mouse|control|control (ssRNA)
RNA: GGGAGUUCUACAGUCCGACGAUCUGGCACCCUCACUUGGAUAGUGGUCUGUCCCGGCAGGUUGGGCGGUCCGGGCACAGCUCCGUUGAGAGCCGUGUUCUUGUUACGAGAGGCUCGGAUCAUGGAGAAGUGCUCUGCGGCAGACAACAGAGGAUUGAGCAUCA
B11: 31616714_31617068_550_CDS_ENSG00000204463_ENST00000375976|human|control|control (ssRNA)
RNA: GGGAGUUCUACAGUCCGACGAUCGUGAACAUCCACAGCAGAGCCGUCACUAGGAAGAUUGAAGGUUCCAACCAUGACAUAGCUGUUGGCAUUCCGGUCAUGAACAGAGGCCCCAGGCCCCCGAGUACCAGGGGGGGAUCCCCCCAACAGAGGAUUGAGCAUCA
B12: chr11:80063784:80063785:+_ENSMUSG00000017686_ENSMUST00000092857|mus_hu|FALSE|FALSE (ssRNA)
RNA: GGGAGUUCUACAGUCCGACGAUCCAUUAAGUUUCUUCCAAGAAGAGCCUGAAGAACUCCACUUUUCCCACAGUUUUUCACUCCAAUUACAUUACAUCUGAACACAUUUCUUUGAGUUUGUUUUUUCUGCAGGUCUAUCUUUUUCAACAGAGGAUUGAGCAUCA
B13: 5264709_5264829_1586_CDS_ENSG00000029725_ENST00000262477|human|control|control (ssRNA)
RNA: GGGAGUUCUACAGUCCGACGAUCUCUUUCCUGAUCUUUGGUUAACAUAAACCCACUUGGCAUCUGGAGUGACCCAAGGGAUGCAGUAUCAAAGUUCUCAGACACUGAAUCUGCUCCUACCAGUGGUCCAAAAUCUGACUCGUCCAACAGAGGAUUGAGCAUCA
B14: chr22:32879901:32879902:+_ENSG00000100225_ENST00000397426|hu_mus|hu_hu_hu_mus_False|18_28 (ssRNA)
RNA: GGGAGUUCUACAGUCCGACGAUCCUCUUCCAUACUCAUGGCAUCCUGAAUUGACUCAGCUUCAACAUUUUGACUAGGCCCUUCCAUACUGUCAUCAGUCCAGGCAUCAGACUGGGCUGCCUGUCCUUGGGAUGAAUCAGUCCCCAACAGAGGAUUGAGCAUCA

This is one part of the list.

For the assay, the target named is T1, UNK ZnF1-3 (human, UniProt Q9C0B0 31-174).
T1 sequence: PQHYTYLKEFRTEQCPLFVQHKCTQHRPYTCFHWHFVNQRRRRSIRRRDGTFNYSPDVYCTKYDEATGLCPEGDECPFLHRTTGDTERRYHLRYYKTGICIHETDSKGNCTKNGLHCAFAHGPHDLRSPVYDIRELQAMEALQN
In words: nsRBNS (natural sequence RNA bind-n-seq); RBNS binding buffer (assumed for nsRBNS): 25 mM Tris pH 7.5, 150 mM KCl, 3 mM MgCl2, 0.01% Triton X-100, 500 ug/ml BSA, 20 U/ml SUPERase-In, 4 C; UNK is unkempt and MSI1 is Musashi-1; names of the RNAs are library labels; protein concentration not given here; high values mean tight binding.
B1: the binding signal came out at 0.519 enrichment R. To B2 belongs 0.994 enrichment R; to B3, 1.52 enrichment R; to B4, 0.7 enrichment R. To B5 belongs 0.384 enrichment R; to B6, 1.1 enrichment R.

In turn, B7 showed a binding signal of 0.434 enrichment R. The molecule B8 returned a binding signal of 0.774 enrichment R. The figure for B9 is 0.939 enrichment R; for B10 it is 0.905 enrichment R. The molecule B11 yielded a binding signal of 1.59 enrichment R. The figure for B12 is 0.577 enrichment R; for B13 it is 0.771 enrichment R; for B14 it is 0.965 enrichment R.

These data come from publication PMC12136788.
